The record followed here is PubChem BioAssay AID1508624 (National Center for Advancing Translational Sciences (NCATS), 2021).

The campaign covered roughly 48,000 compounds. About 120 (0.25%) were called active. About 4% were inconclusive and are not listed. Calls follow the shape of the dose curve; as a rule, active = well fitted activation curve with a large enough effect; inconclusive = small, poorly fitted or top-dose-only effect, or another doubt; inactive = no such curve, though single readings can be large or run the other way. This is one part of the list.

The nature of this test: Primary qHTS for Identification of Small Molecule Activators of Huntingtin-Antisense Promoter Activity. Also: nearly all actives have a fitted effect of over 55% in size. The note with it: HEK293 HTT-AS promoter firefly luciferase reporter (activity 0% = vehicle and -100% = no light), 24 h; series mostly up to 57.5 µM; activity change, positive = activation: at the top concentration. Summed up: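 Firefly luciferase signal from promoter-reporter HEK293 cells was scaled between vehicle (0%) and zero RLU (-100%). Compounds were tested at final concentrations of up to 57.5 uM over 24 h at 37 degrees C. PTC124 at 50 uM final served as control inhibitor.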
Consider `Cc1ccc(C)c(NC(c2ccccc2)c2nnc(-c3ccccc3F)o2)c1` (stereo unspecified), for which the “activity change, positive = activation” value was inactive: 29.7%.
As to `Clc1ccc(CCNc2nc3cc(Cl)c(Cl)cc3n3cnnc23)cc1`, the “activity change, positive = activation” value is inactive: -2.16%.
Take `COc1ccc(CCN2C(=O)N(c3cccc(C)c3)C(=O)C2CC(=O)Nc2ccccc2)cc1OC` (stereo unspecified): the “activity change, positive = activation” value is inactive: -20.5%.
The same measure for `CCN(CC)c1ccc2cc(-c3nc4sc5c(c4c(=O)[nH]3)CCC(C(C)(C)C)C5)c(=O)oc2c1` (stereo unspecified): inactive: -6.72%; for `COc1cccc(NC(=O)c2c(C)oc3nc(C)nc(N4CCCC4)c23)c1`: inactive: -15%.
Consider `COc1ccc(CC(=O)Nc2nc3c(s2)CCCC3)cc1`, for which the “activity change, positive = activation” value is inactive: -16.1%.
In the case of `CCC(=O)N1CCc2cc(S(=O)(=O)CCC(=O)N3CCN(c4cccc(C)c4C)CC3)ccc21` it was inactive: -4.34%.
In the case of `Cc1ccc2c(c1)N(C(=O)CCC(=O)NCc1cccc(F)c1)CC(C)O2` (stereo unspecified) it was inactive: -9.07%.
In the case of `Cc1cccc(C)c1NC(=O)c1cc(S(=O)(=O)N2CCc3ccccc3C2)ccc1F` it was inactive: -32.4%; in that of `O=C(c1ccc(Cl)cc1)n1nc(-c2cccnc2)nc1NCc1ccc(F)cc1`, inactive: 3.47%.
With `CCOC(=O)c1cccc(NC(=O)CCS(=O)(=O)c2ccc3c(c2)CCN3C(=O)CC)c1`, the “activity change, positive = activation” value is inactive: -6.93%.
In the case of `COc1cccc2cc(-c3nc(-c4ccc(Cl)cc4)cs3)c(=O)oc12` it was inactive: 8.09%; in that of `CC(=O)c1cccc(NC(=O)c2ccc3nc(Cc4ccccc4)oc3c2)c1`, inactive: -3.76%.
The same measure for `CCn1c(=O)c2sccc2n2c(CCCC(=O)N3CCN(c4ccc(F)cc4)CC3)nnc12`: inactive: -10.9%.
For `CCCCOc1ccc(C(=O)N(Cc2ccccc2)C2CCS(=O)(=O)C2)cc1` (stereo unspecified), the “activity change, positive = activation” value is inactive: 2.37%.
As for `CCCCOC(=O)c1c(C)oc2c1cc(NS(=O)(=O)c1cc(OC)ccc1OC)c1ccccc12`, the “activity change, positive = activation” value is inactive: -24%.
The same measure for `CCOc1ccc(-c2nnc(SCC(=O)Nc3cccc(C#N)c3)o2)cc1`: inactive: -76.1%; for `COc1ccc(-c2c(C)c3ccc(O)c(CN4CCOCC4)c3oc2=O)cc1OC`: inactive: -16.4%; for `COc1cccc(NC(=O)Nc2ccc3c(c2)N(C)C(=O)c2ccccc2S3)c1`: inactive: -24.5%.
In the case of `CC1CCN(C(=O)Cn2c(-c3cccs3)cc3cc(Cl)ccc32)CC1` it was inactive: -26.2%; in that of `CCCN1Cc2cccc(C(=O)Nc3cc(Cl)ccc3C)c2C1=O`, inactive: -7.02%.
In the case of `Cc1cc(C)c2c(c1)c(C)cc1nnc(SCC(=O)c3ccccc3)n12` it was inactive: 1.54%; in that of `Cc1ccc(C)c(NC(=O)C(CC(C)C)N2Cc3ccccc3C2=O)c1` (stereo unspecified), inactive: -11.1%; in that of `O=C(CSc1nccn1Cc1ccc(F)cc1)NCc1ccco1`, inactive: 9.14%.
On to `O=C(CN1C(=O)c2ccccc2Sc2ccc(C(=O)N3CCOCC3)cc21)Nc1ccc(Cl)cc1F`, for which the “activity change, positive = activation” value is inactive: -4.21%.
In the case of `Cc1cccc(NC(=O)c2sc3ncnc(N(C)C4CCCCC4)c3c2C)c1C` it was inactive: -19.6%.
Consider `Cc1ccc2onc(CC(=O)N3CCN(c4cccc(Cl)c4)CC3)c2c1`, for which the “activity change, positive = activation” value was inactive: -27.5%.
The same measure for `COc1ccc(NC(=O)Cn2c(=O)oc3cc(S(=O)(=O)N4CCCCCC4)ccc32)cc1OC`: inactive: -17.6%; for `C[C@]12CC[C@@H]3c4ccc(O)cc4CC[C@H]3[C@H]1CC[C@H]2O`: inactive: -24%.
In the case of `Cc1cc(F)ccc1NC(=O)Cn1cc(S(=O)(=O)NC(C)C)c(S(=O)(=O)NC(C)C)c1` it was inactive: -3.49%.
Consider `CCCCSc1nc2sc3c(c2c(=O)n1-c1ccccc1C)CC(C)(C)OC3`, for which the “activity change, positive = activation” value is inactive: -12%.
In the case of `CCOc1ccc(-n2cc(-c3ccccc3)c3c(Nc4cccc(F)c4)ncnc32)cc1` it was inactive: -2.5%; in that of `COc1ccc(NC(=O)CNC(=O)Cn2c(C)cc3ccccc3c2=O)c(OC)c1`, inactive: -14.7%.
As to `O=C(c1ccccc1)N1CCN(CCc2ccccn2)CC1`, the “activity change, positive = activation” value was inactive: -6.91%.
The same measure for `COc1cccc(C(=O)Nc2c(C(=O)Nc3ccc(F)cc3)oc3ccccc23)c1OC`: inactive: 25.4%; for `CCOc1ccc(C(=O)Nc2nnc(SCc3cc(=O)n4ccccc4n3)s2)cc1`: inactive: 15.7%.
In the case of `CCN(Cc1ccccc1)S(=O)(=O)c1cc(Br)cc2c1N(C(=O)C1CC1)CC2` it was inactive: -31.8%; in that of `Cc1ccc(NC(=O)c2cnc(N3CCCC3)nc2C)cc1F`, inactive: 5.98%.
Turning to `COC(=O)c1ccc(NC(=O)C(=O)NCCc2csc(-c3ccc(F)cc3)n2)cc1`, the “activity change, positive = activation” value is inactive: -10.6%.
As to `Cc1ccc(O)c(NC(=O)C2=CC(c3ccco3)=NS(=O)(=O)N2C)c1`, the “activity change, positive = activation” value is inactive: -17.4%.
With `O=C(CSc1ncccc1C(=O)Oc1ccccc1Cl)Nc1ccc(C(F)(F)F)cc1Cl`, the “activity change, positive = activation” value was inactive: -5.34%.
`COc1ccc(N2CCN(Cc3nc4c(c(=O)[nH]c(=O)n4C)n3Cc3ccccc3C)CC2)cc1`: the “activity change, positive = activation” value was inactive: -0.764%.
Take `Cc1csc2nc(COC(=O)CNC(=O)c3ccccc3)cc(=O)n12`: the “activity change, positive = activation” value was inactive: -4.92%.
The same measure for `Cc1ccc(CN(C(=O)COc2ccccc2[N+](=O)[O-])c2ccccn2)o1`: inactive: 5.97%; for `O=c1oc2ccccc2cc1-c1cn2cc(Cc3cc(Cl)ccc3Cl)sc2n1`: inactive: -13.7%; for `COc1ccc(NC(=O)C2CCCN(S(=O)(=O)c3ccc(F)cc3)C2)cc1` (stereo unspecified): inactive: -19%.
